The list shows a part of the results.
T1: UNK ZnF1-3 (human, UniProt Q9C0B0 31-174)
T1 sequence: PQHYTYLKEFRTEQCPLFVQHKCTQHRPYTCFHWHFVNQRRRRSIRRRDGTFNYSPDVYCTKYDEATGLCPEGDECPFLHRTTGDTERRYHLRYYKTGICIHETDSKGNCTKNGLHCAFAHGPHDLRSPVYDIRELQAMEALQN

B1: chr22:32879901:32879902:+_ENSG00000100225_ENST00000397426|hu_hu|FALSE|FALSE (ssRNA)
RNA: GGGAGUUCUACAGUCCGACGAUCCUCUGCCAUAUGCGCAUUAUCUUGAAUUGACUCAGCUUCAAAAUUUUGACUAGGCCCUAACAUACUGUCGUCAUUCCAAACACCAGACUGGGCUGCCUGUCCUUGGAAUGAAUCACUUGGCAACAGAGGAUUGAGCAUCA
B2: chr5:176562935:176562936:+_ENSG00000165671_ENST00000439151|hu_mus|FALSE|FALSE (ssRNA)
RNA: GGGAGUUCUACAGUCCGACGAUCGGGACUGGAGUCUGGAUCAUCCUGAAAAGAUAAAUUUAUUGAGUUAAAUUGCUCUUCUACGGUAACGUUCGUGUCUCCUAGUGAGGUGGGGGCUGGGAGGAGGGCUGUCUUUUCAUUGCUCAACAGAGGAUUGAGCAUCA
B3: chr1:66480114:66480115:+_ENSMUSG00000015222_ENSMUST00000024639|mus_hu|mus_mus_mus_hu_True|58_108 (ssRNA)
RNA: GGGAGUUCUACAGUCCGACGAUCUGGCCUGUGACGGAUGUUCUUCAGAGAGCCACAUUUGGAUGUCACAUGGCUUAAGUCUAUCUUCUUGGUAACAAUUUGUACCUGCCCCCCUUUAGGCUGGUAUUUGAUGUUGUCUGUUGACAACAGAGGAUUGAGCAUCA
B4: 121983341_121984406_576_CDS_ENSMUSG00000029454_ENSMUST00000153763|mouse|control|control (ssRNA)
RNA: GGGAGUUCUACAGUCCGACGAUCCGAGGUAGGUAUGAUGCCAGACUUCUCCUUCUGGUGCCGUCUCUGCGCUUCCAGUACCUGAGGUGCUACAUAGUAAGGGGUAAACUGGGGUGUCAUCAAAUCACCUUGGUCAACUUUAGCCAACAGAGGAUUGAGCAUCA
B5: chr7:72892388:72892389:-_ENSG00000009954_ENST00000339594|hu_mus|FALSE|FALSE (ssRNA)
RNA: GGGAGUUCUACAGUCCGACGAUCUUCUUUGUAAUAGGCAAUCAGAUGCAGAGCUGCAGGAGGCAGGUGUUUGUGAGGUUUACCAGAAGACCUUGGCACACCCCCAGAACUCCGUGGGGUGCGGGUCAUCUUCUGAGUCCCUUUCAACAGAGGAUUGAGCAUCA
B6: 117043516_117043636_1225_CDS_ENSG00000003096_ENST00000371878|human|control|control (ssRNA)
RNA: GGGAGUUCUACAGUCCGACGAUCCGAUUUCCACUCAUGGGCCUUUUCAUCAUACAUGCGCAAUUCCUUACUGACAACCAGCUGCUGCCUCAGCACUCCUCCUAGUGUAACCAAGUGAGUGGUGUCAGACCUAAUGGCAGUCCUCAACAGAGGAUUGAGCAUCA
B7: 49052207_49054487_3773_CDS_ENSG00000008294_ENST00000262013|human|control|control (ssRNA)
RNA: GGGAGUUCUACAGUCCGACGAUCGGGUAUAAAUGUCCCUGGAGUCACUUUAUCACUGUUUUCAUCACCAUAUACACGGAUUACACUUCCAGGACGAUUUCCUGGUACACCUGAGGUUUUAUUUGUUUCUGUCAAUGGGAUGGACAACAGAGGAUUGAGCAUCA
B8: chr16:87731977:87731978:+_ENSMUSG00000025612_ENSMUST00000026703|mus_mus|motif|central (ssRNA)
RNA: GGGAGUUCUACAGUCCGACGAUCAUGUACUUUCACACAGUGAGCACUCUCUCCCAGGAAAAUUGAGUGGACUUCUCAAAAUUUCGGGAAAAUAAUUCCAAUUUAAUUUUCUCUUCCAAAGAUGAAAACACAUACCACCCUUCCCAACAGAGGAUUGAGCAUCA
B9: chr3:148802587:148802588:-_ENSG00000071794_ENST00000310053|hu_mus|hu_hu_hu_mus_False|48_78 (ssRNA)
RNA: GGGAGUUCUACAGUCCGACGAUCUCCAACAACUUGUCCUCUCAUAGUUCCAAAUAAAACGGAAUCUUGCUCUUCAUCACUCGUUAGAAAGUCAUCUGGAGGAAUAAUGUCUUGGAAUUCAAAAUGUGGCAAGAAAGUUGAGUACAACAGAGGAUUGAGCAUCA
B10: chr1:94953452:94953453:+_ENSG00000117528_ENST00000370214|hu_hu|FALSE|FALSE (ssRNA)
RNA: GGGAGUUCUACAGUCCGACGAUCUUCUGUAAUCCGAGCAGUAAAACCGGCCAAUCUAGUCAUUUCACGCCCAGCCAAAACUAUUCGACCCAGAGCUUGAGACAUUCGCAAAAGCAUUCUUCCACUUUGGUAGUAAUCCUCUAGCAACAGAGGAUUGAGCAUCA
B11: chr5:17772112:17772113:-_ENSMUSG00000057614_ENSMUST00000074694|mus_mus|FALSE|FALSE (ssRNA)
RNA: GGGAGUUCUACAGUCCGACGAUCAAGUCUAAGAUCCUGUGUCCUGAAAAAAUCUGGAGAUUUGGUUUCUUAAAUAAAUCUAAACUAGAGUCAGAACAUCAUGCACUCUGUAAAUAAAUUCUAAUGCACUCAAUGCUUAAAUAACAACAGAGGAUUGAGCAUCA
B12: 66526805_66526925_1538_3pUTR_ENSG00000108946_ENST00000358598|human|control|control (ssRNA)
RNA: GGGAGUUCUACAGUCCGACGAUCACAUCAUUACUCUAUGGUAAUUCAAUAGGUGCUGGGAUCUGCCCUCACCAAAAAGCAUGGCACUCACUGCCCAGGGUGAAUACUAACACUGCACAAAGAGAAGCAGUAACAGCAAAGUCUCAACAGAGGAUUGAGCAUCA
B13: 32949551_32953290_374_CDS_ENSG00000060749_ENST00000399302|human|control|control (ssRNA)
RNA: GGGAGUUCUACAGUCCGACGAUCGCCUGUCUGCCAGGAUGGAGCCCUGAAUUGUGGUAAGAGAGUAGUUCCUGAAGCAGCAGCCUGAGCAGUUCGGGAUUCAGCAGUAGACAGAAAAUUCAUCACUGAAGACUCUUUAGUGUUCAACAGAGGAUUGAGCAUCA
B14: 107066159_107066279_1795_CDS_ENSMUSG00000049606_ENSMUST00000112696|mouse|control|control (ssRNA)
RNA: GGGAGUUCUACAGUCCGACGAUCCACAAACGUCUUAGGGCAAUUGGUACCAAACACACACUGAGGGCACUGGAGUCGAGCACUUCUGCCUUCAUCCUGGAGCUCUUUCAGCUCACGAAUCUCUUCCAUCAGCUUCUGCCGUCUCAACAGAGGAUUGAGCAUCA

The binders below were run against T1, UNK ZnF1-3 (assay: nsRBNS (natural sequence RNA bind-n-seq); RBNS binding buffer (assumed for nsRBNS): 25 mM Tris pH 7.5, 150 mM KCl, 3 mM MgCl2, 0.01% Triton X-100, 500 ug/ml BSA, 20 U/ml SUPERase-In, 4 C; UNK is unkempt and MSI1 is Musashi-1; names of the RNAs are library labels; protein concentration not given here; high values mean tight binding).
B1 was tested, and the binding signal was 0.74 enrichment R.
B2 gave a binding signal of 0.869 enrichment R.
With B3 the binding signal was 0.407 enrichment R.
In the case of B4, the binding signal is reported as 0.93 enrichment R.
B5 gave a binding signal of 0.917 enrichment R.
Binder B6 has a binding signal of 0.77 enrichment R.
B7 was tested, and the binding signal was 0.759 enrichment R.
In the case of B8, the binding signal is reported as 1.28 enrichment R.
In the case of B9, the binding signal is reported as 1.38 enrichment R.
With B10 the binding signal was 0.956 enrichment R.
With B11 the binding signal was 1.36 enrichment R.
For B12, the binding signal was 1.15 enrichment R.
Work on B13 yielded a binding signal of 1.48 enrichment R.
B14 gave a binding signal of 0.955 enrichment R.

Source: article PMC12136788
